According to article PMC4336329 (PLoS ONE, 2015):
In all, about 310,000 compounds went through this assay and about 14,000 (4.5%) showed an effect of 50% or more. Effects have a minus sign here. The list shows a part of the results.

What follows are compounds tested against human ether-à-go-go-related gene (hERG) potassium channel (human, UniProt Q12809) (assay: primary screen, population patch clamp on CHO cells stably expressing hERG).
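Note: peak tail current of the secondary pulse compared with the same well before compound.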

Chain of human ether-à-go-go-related gene (hERG) potassium channel (Q12809 whole entry, looked up): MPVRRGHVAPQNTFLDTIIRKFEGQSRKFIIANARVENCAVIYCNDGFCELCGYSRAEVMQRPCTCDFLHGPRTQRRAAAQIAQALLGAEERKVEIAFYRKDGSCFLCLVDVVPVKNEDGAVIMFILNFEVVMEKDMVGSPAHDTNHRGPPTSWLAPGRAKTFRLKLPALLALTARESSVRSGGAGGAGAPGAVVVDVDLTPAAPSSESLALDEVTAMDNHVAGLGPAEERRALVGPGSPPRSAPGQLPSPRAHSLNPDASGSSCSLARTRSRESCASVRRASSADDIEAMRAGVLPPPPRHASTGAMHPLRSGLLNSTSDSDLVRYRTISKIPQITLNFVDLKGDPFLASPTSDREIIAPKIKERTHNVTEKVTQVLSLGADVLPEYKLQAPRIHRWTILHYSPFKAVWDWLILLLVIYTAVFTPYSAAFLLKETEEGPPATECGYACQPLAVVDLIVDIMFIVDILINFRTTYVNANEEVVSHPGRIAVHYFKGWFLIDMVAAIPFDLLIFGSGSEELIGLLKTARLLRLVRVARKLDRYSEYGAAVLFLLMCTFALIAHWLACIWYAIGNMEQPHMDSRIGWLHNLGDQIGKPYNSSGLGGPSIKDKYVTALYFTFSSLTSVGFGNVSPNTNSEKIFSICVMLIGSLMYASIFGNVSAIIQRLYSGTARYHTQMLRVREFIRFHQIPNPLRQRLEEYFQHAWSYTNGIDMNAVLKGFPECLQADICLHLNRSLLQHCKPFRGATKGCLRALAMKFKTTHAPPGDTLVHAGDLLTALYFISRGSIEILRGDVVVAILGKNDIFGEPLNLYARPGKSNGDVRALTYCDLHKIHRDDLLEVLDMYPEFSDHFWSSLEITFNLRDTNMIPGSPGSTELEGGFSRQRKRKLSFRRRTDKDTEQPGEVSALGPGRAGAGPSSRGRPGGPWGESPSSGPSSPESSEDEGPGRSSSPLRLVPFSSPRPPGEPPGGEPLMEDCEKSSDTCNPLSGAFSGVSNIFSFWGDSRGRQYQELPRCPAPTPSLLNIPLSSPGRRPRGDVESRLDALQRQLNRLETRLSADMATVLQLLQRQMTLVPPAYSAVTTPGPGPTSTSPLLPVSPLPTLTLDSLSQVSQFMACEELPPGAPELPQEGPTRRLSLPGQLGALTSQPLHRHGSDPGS

Compound | hERG current change (%, negative = inhibition) at 10uM
Cc1ccc(NS(=O)(=O)c2cccc([N+](=O)[O-])c2)nc1 | 12%
O=Cc1ccccc1OS(=O)(=O)c1ccccc1 | -28.3%
Cc1cc(C(=O)Nc2cc(C(F)(F)F)ccc2N2CCOCC2)no1 | 5.97%
CN(C)c1ccc(P(=O)(OCc2ccccc2)C(O)c2ccc(Br)cc2)cc1 (centres unmarked) | 17.4%
COC(=O)Nc1sc2c(c1C(N)=O)CCCCCC2 | 11.9%
COc1ccc(S(=O)(=O)N(CCc2ccccc2)CC(=O)NCCCO)cc1 | -36%
CN(Cc1cccnc1)C(=O)c1cc(COc2ccc3ncccc3c2)on1 | 0.745%
O=C(COC(=O)c1cc(-c2cccs2)nn1-c1ccccc1)Nc1ccc(F)c([N+](=O)[O-])c1 | 7.9%
N#CCCN(C(=O)COC(=O)C1CCN(S(=O)(=O)c2ccc3c(c2)OCCO3)CC1)c1ccccc1 | -0.2%
CCCc1cc(=O)oc2cc(OCC(=O)Nc3ccc(S(N)(=O)=O)cc3)ccc12 | 23.1%
NC(=O)C1CCN(C(=O)CSc2ncccn2)CC1 | 12.7%
COC(=O)[C@H](C)NC(=O)Nc1ccc(OC)c(OC)c1 | 3.73%
O=C(NC(=O)c1c(F)cccc1F)O/N=C1\CCCc2occc21 | 17.9%
COc1ccc2c(c1)[nH]c1c(=O)n(CCN3CCCC3)cnc12 | -46.3%
CCN(CC)CCNC(=O)c1sc2ncn(CC(=O)Nc3ccc(C)c(Cl)c3)c(=O)c2c1C | -51.8%
CN(CCC#N)C(=O)COC(=O)/C=C/c1cccs1 | 6.84%
CCC(=O)OC1(C)C(=O)C=C2C=C(CCCCNC(=O)OC(C)(C)C)OC=C2C1=O (centres unmarked) | 6.58%
COc1ccc(CC(=O)NNS(=O)(=O)c2cccc([N+](=O)[O-])c2)cc1OC | 18.6%
CCOC(=O)C(NC(=O)c1ccc(Cl)cc1Cl)(Nc1ccc(C)cc1)C(F)(F)F (centres unmarked) | 3.51%
O=C1NC[C@H](CC2CCCCC2)N(CC2CCCCC2)C1=O | -9.63%
COc1ccc(N2CCN(CCCNC(=O)c3cc4sccc4n3C)CC2)cc1 | -70.7%
COc1ccc(CC(=O)Nc2nc(-c3cc(OC)ccc3OC)cs2)cc1 | 5.41%
C/C(=N\Nc1nc2ccccc2[nH]1)c1ccc2c(c1)OCCO2 | -3.96%

Compound | hERG current change (%, negative = inhibition) at 10uM
CC(C)(C)C1CCc2c(sc(N)c2C(N)=O)C1 (centres unmarked) | -2.58%
NNC(=O)C(Cc1c[nH]c2ccccc12)NC(=O)c1ccccc1 (centres unmarked) | 2.77%
Cc1cc2c(cc1C)CSC(c1ccc(O)cc1)SC2 | 22.8%
Cc1c(C)c(C)c(S(=O)(=O)n2[nH]c(=O)c(CCO)c2C)c(C)c1C | -14.4%
COCC1CCN(C(=O)c2ccc3oc(Cc4ccccc4)nc3c2)C1 (centres unmarked) | -0.23%
CCC(=NCC1CCCO1)c1c(O)n(-c2ccccc2C)c(=O)[nH]c1=O (centres unmarked) | 16.7%
C=CCn1c(NCc2cc(Cl)ccc2O)nc2ccccc21 | -0.405%
CCC(=O)NC(Nc1cccc(C)n1)(C(F)(F)F)C(F)(F)F | 10.6%
COc1cccc(/C=N\Nc2nncc(-c3ccccc3)n2)c1 | -1.22%
CCOc1ccc(NC(=O)Nc2ccc(NC(C)=O)cc2)cc1 | 25.3%
COc1ccccc1-n1c(/C=C/c2ccccn2)nc2ccccc2c1=O | 5.91%
COc1cc(CNC(=O)CCC(=O)N2C[C@H]3C[C@H](C2)c2cccc(=O)n2C3)cc(OC)c1OC | 7.77%
COc1cccc(OC)c1C(=O)O/N=C(\N)c1ccncc1 | 2.52%
CCOc1ccc(C2CC(c3cccc(OC)c3)Nc3nc(N)nn32)cc1 (centres unmarked) | -26%
Cc1cc2c(C)nc(Cc3ccccc3)nc2o1 | 14.7%
CCOC(=O)/C(C#N)=C1\C=CN(C)C(C)=N1 | 4.97%
N#Cc1cccn1-c1nccc(-c2cccs2)n1 | -4.22%
CCN(CC)CCNC(=O)Cn1nc(-c2ccc(C)cc2)ccc1=O | -14.2%
Cc1ccc(CN2C(=O)CCC2C(=O)NCCN2CCOCC2)cc1 (centres unmarked) | 3.18%
O=C(Nc1ccc2c(c1)OCO2)C1CCN(S(=O)(=O)Cc2ccccc2)CC1 | 10.5%
CC(=O)N1c2ccc(S(=O)(=O)N(C)C3CCCCC3)cc2CC1C (centres unmarked) | -21.6%
Cc1ccc(S(=O)(=O)N(C)CC(=O)NCc2ccncc2)cc1 | -13.7%
CCOc1ccc(N(CC)C(=O)Cc2c(C(=O)O)n(C)c3ccccc23)cc1 | 16.8%

Compound | hERG current change (%, negative = inhibition) at 10uM
O=C(O)COc1ccc2c(c1)OCCO2 | 8.17%
Cc1oc(-c2ccccc2F)nc1CS(=O)(=O)CC(=O)NCCN1CCCC1 | 12.4%
Cc1sc2nc(SCC(=O)O)[nH]c(=O)c2c1C | 16.2%
CCCCN(CC)CCNC(=O)c1[nH]c(C)c(C(C)=O)c1C | -8.67%
Cc1nn(CC(=O)OCC(=O)NC(C)c2ccccc2)c(C)c1[N+](=O)[O-] (centres unmarked) | 9.05%
O=C1CSC(c2cccnc2)N1Cc1cccnc1 (centres unmarked) | 13.9%
Cc1ccccc1OC(C)C(=O)NCCCN1CCOCC1 (centres unmarked) | 14.1%
O=C(Cn1c(=O)oc2cc(S(=O)(=O)N3CCCC3)ccc21)N1CCN(c2ccccc2F)CC1 | 1.28%
COc1cc(NS(=O)(=O)c2ccc3ccccc3c2)c2ncccc2c1 | 1.74%
CCN(CC)c1ccc(C(=O)NNC(=O)c2cccn2C)cc1 | -12.5%
NC(=O)c1nc(N2CCOCC2)nc(N2CCOCC2)n1 | 8.54%
COc1ccc(C(=O)Oc2cc(C(=S)N3CCOCC3)ccc2OC)cc1 | 2.81%
COc1ccccc1N1CCN(S(=O)(=O)c2ccc(Br)s2)CC1 | -2.54%
CCN1C(=O)CSC1=Nc1ccc(C(=O)O)cc1 | 25.1%
COc1ccc(N(CC(=O)NCc2ccccn2)S(=O)(=O)c2ccccc2[N+](=O)[O-])c(OC)c1 | -10.3%
CCCc1c(C(=O)Nc2ccc(F)cc2F)cnn1-c1ccccc1 | -13.5%
CCCC1(C(=O)OC)NC(c2ccc(OC)c(OC)c2)C2C(=O)N(c3cccc(C(C)=O)c3)C(=O)C21 (centres unmarked) | 2.39%
COc1cc(C(=O)NCCSc2ccc(Br)cc2)cc(OC)c1OC | 6.33%
CCc1c(C)nc2ncnn2c1NCCc1ccccc1 | -15.2%
Oc1ccc(Cl)cc1CNc1nccs1 | 14.4%
O=C(CSc1ccc(-c2cccc([N+](=O)[O-])c2)nn1)N1CCCCC1 | -1.31%
O=C(CCOc1ccccc1)Nc1ccc(S(=O)(=O)N2CCCC2)cc1 | -17.1%
COc1ccccc1C(=O)COC(=O)c1cccc(S(=O)(=O)N2CCCC2)c1 | -1.47%

Compound | hERG current change (%, negative = inhibition) at 10uM
CCOc1cc(/C=C2\C(=N)N3N=C(S(=O)(=O)CC)SC3=NC2=O)ccc1OC(=O)c1ccco1 | 2.4%
CN(C(=O)CSc1nnnn1-c1ccccc1)C1CCCCC1 | -21.7%
COc1ccc(C2=NN(c3ccc(C=O)cc3)C(c3ccccc3)C2)cc1 (centres unmarked) | 18.9%
CC(C)(C)C(=O)O/N=C(\N)c1ccc(-c2csnn2)cc1 | -3.82%
CCS(=O)(=O)N1CCC(C(=O)Nc2ccc3c(c2)CCC3)CC1 | -4.33%
Cn1c2c(c(=O)n(C)c1=O)C(CC(=O)Nc1ccc(F)cc1)C(=O)N2 (centres unmarked) | 3.05%
COCCNC(=O)C(c1ccc(F)cc1)N(Cc1ccco1)C(=O)CCC(=O)Nc1nccs1 (centres unmarked) | -1.78%
CCOC(=O)C1CCCN(C(=O)c2ccc(C)c(S(=O)(=O)N3CCCCC3)c2)C1 (centres unmarked) | -25.3%
COc1ccc(C2OCC3(CO2)SC(=O)NC3=O)cc1OC (centres unmarked) | 10.6%
Cc1cc(C)n2nc(S(=O)(=O)NC3CCCCC3)nc2n1 | 8.17%
Cc1c(O)cccc1C(=O)N[C@@H](CSc1ccccc1)[C@H](O)CN1C[C@H]2CCCC[C@H]2C[C@H]1C(=O)NC(C)(C)C | 8.75%
C=CCn1c(=O)c2ccccc2n2c(SCc3nc(N)nc(Nc4ccccc4C)n3)nnc12 | -26.8%
N#Cc1sc2nc3c(c(-c4cccnc4)c2c1N)CCC3 | -12%
CNC(=O)CSc1nc2cc(S(=O)(=O)Nc3ccccc3OC)ccc2o1 | 11.5%
O=C(CSc1ccccc1F)NCC1(N2CCCCC2)CCCCC1 | -17.3%
CN(C)C=O.Cc1ccc(-c2cc(-c3n[nH]c(=S)o3)c3ccccc3n2)cc1 | 31%
Cc1ccc(C(=O)Oc2cccc(NC(=O)c3cccs3)c2)cc1S(=O)(=O)N1CCOCC1 | -20.7%
OCCNCCO | -2.71%
CCCCN(C)S(=O)(=O)c1ccc(C(=O)N(CCN(C)C)c2nc3ccc(C)cc3s2)cc1.Cl | -43.4%
CCc1nnc(SCC(=O)NC2CCCC2)nc1CC | -3.08%
